Laboratory results taken from the supplement of paper PMC4604168 (melanoma cell lines).
The other results are listed elsewhere or left out. Many values rest on one well or one pass, so single values are uncertain.

Test system: IPC-298
Experiment: cell count relative to DMSO control; melanoma cells; higher = more viable cells
Settings: library dose: low library concentration; 72 h
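Also: cell number obtained by counting DAPI-stained nuclei in high-throughput microscope images with image analysis software, screen run in 1,536-well plates.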

**Q.** How did the cell count turn out when `O=S(=O)(c1ccccc1)N(CC(F)(F)F)c1ccc(C(O)(C(F)(F)F)C(F)(F)F)cc1` + CC(C)CCN1c2nc(Nc3cc(F)c(O)c(F)c3)ncc2N(C)C(=O)C1C [BID1870] (first compound 1.4 µM, partner dose 0.2 µM) was run?
**A.** The cell count was 89.4%.

**Q.** `N#Cc1c(O)c2c(-c3ccc(-c4ccccc4O)cc3)csc2[nH]c1=O` + Oc1nc(-c2ccc(C(F)(F)F)cc2)nc2c1CSCC2 [XAV939] (first compound 2 µM, partner dose 2 µM) was tested. Which cell count did it give?
**A.** The cell count was 101%.

**Q.** Which cell count does the source give for `N#Cc1c(O)c2c(-c3ccc(-c4ccccc4O)cc3)csc2[nH]c1=O` + CCN(CC)CCCCNc1ncc2cc(-c3cc(OC)cc(OC)c3)c(NC(=O)NC(C)(C)C)nc2n1 [PD173074] (first compound 2 µM, partner dose 0.1 µM) here?
**A.** Its cell count is 105%.

**Q.** `COc1ccc2c(c1)CCC1C2CCC2(C)C(NCCCCCCN3C(=O)C=CC3=O)CCC12` (stereo unspecified) + O=C1NC(=O)/C(=C/c2ccc(-c3ccc(F)cc3O)o2)S1 [AS252424] (first compound 0.4 µM, partner dose 1 µM) was tested. Which cell count did it give?
**A.** The cell count was 94.8%.

**Q.** For `COc1ccc(COc2ccc(Cc3cnc(N)nc3N)cc2OC)cc1` + Cn1cc(/C=C2\C(=O)Nc3cccnc32)c2ccccc21 [GW441756] (first compound 1 µM, partner dose 0.4 µM), which cell count is on record?
**A.** The cell count was 99.3%.

**Q.** Which cell count does the source give for `Oc1cc(-c2nc(-c3ccccc3)[nH]c2-c2ccncc2)ccc1Cl` + CCCCCCCCCCCC1=C(O)C(=O)C=C(O)C1=O [Embelin] (first compound 0.2 µM, partner dose 1.2 µM) here?
**A.** The cell count was 81.3%.

**Q.** For `O=C(O)C(=O)Nc1sc2c(c1C(=O)O)CCNC2` + Cn1cc(/C=C2\C(=O)Nc3cccnc32)c2ccccc21 [GW441756] (first compound 1.66667 µM, partner dose 0.4 µM), which cell count is on record?
**A.** The cell count was 96.8%.

**Q.** Which cell count does the source give for `O=C(O)C(=O)Nc1sc2c(c1C(=O)O)CCNC2` + CCCCCCCCCCCC1=C(O)C(=O)C=C(O)C1=O [Embelin] (first compound 1.66667 µM, partner dose 1.2 µM) here?
**A.** Its cell count is 103%.

**Q.** `COc1ccc2c(c1)CCC1C2CCC2(C)C(NCCCCCCN3C(=O)C=CC3=O)CCC12` (stereo unspecified) + CCN(CC)CCCCNc1ncc2cc(-c3cc(OC)cc(OC)c3)c(NC(=O)NC(C)(C)C)nc2n1 [PD173074] (first compound 0.4 µM, partner dose 0.1 µM) was tested. Which cell count did it give?
**A.** Its cell count is 94.5%.

**Q.** `COC(=O)c1sccc1S(=O)(=O)Nc1ccc(Nc2ccccc2)cc1OC` + COc1cc2ncnc(Nc3ccc(Oc4ccccc4)cc3)c2cc1OC [SrcI1] (first compound 1 µM, partner dose 2 µM) was tested. Which cell count did it give?
**A.** The cell count was 90.5%.

**Q.** For `CCN(CC)CCCCNc1ncc2cc(-c3cc(OC)cc(OC)c3)c(NC(=O)NC(C)(C)C)nc2n1` + COc1ccc(COc2ccc(Cc3cnc(N)nc3N)cc2OC)cc1 [GW2580] (first compound 0.1 µM, partner dose 1 µM), which cell count is on record?
**A.** The cell count was 97.4%.

**Q.** How did the cell count turn out when `COc1cc(N2CCC(N3CCN(C)CC3)CC2)ccc1Nc1ncc(Cl)c(Nc2ccccc2S(=O)(=O)C(C)C)n1` + CC(C)CCN1c2nc(Nc3cc(F)c(O)c(F)c3)ncc2N(C)C(=O)C1C [BID1870] (first compound 0.08 µM, partner dose 0.2 µM) was run?
**A.** The cell count was 107%.

**Q.** `c1cc(-c2cnn3cc(-c4ccc(OCCN5CCCCC5)cc4)cnc23)ccn1` [Dorsomorphin] + Cn1cc(/C=C2\C(=O)Nc3cccnc32)c2ccccc21 [GW441756] (first compound 0.4 µM, partner dose 0.4 µM) was tested. Which cell count did it give?
**A.** The cell count was 95.3%.

**Q.** How did the cell count turn out when `Cn1cc(/C=C2\C(=O)Nc3cccnc32)c2ccccc21` + CCCCCCCCCCCC1=C(O)C(=O)C=C(O)C1=O [Embelin] (first compound 0.4 µM, partner dose 1.2 µM) was run?
**A.** Its cell count is 88.3%.

**Q.** With `Oc1nc(-c2ccc(C(F)(F)F)cc2)nc2c1CSCC2` + Cn1cc(/C=C2\C(=O)Nc3cccnc32)c2ccccc21 [GW441756] (first compound 2 µM, partner dose 0.4 µM) as the compound, how does the cell count read?
**A.** The cell count was 88%.

**Q.** `COc1ccc(-c2ccc3c(N4CCOCC4)nc(N4C[C@@H](C)O[C@@H](C)C4)nc3n2)cc1CO` + Cc1cc([N+](=O)[O-])ccc1NS(=O)(=O)c1cc(Cl)ccc1Cl [FH535] (first compound 0.02 µM, partner dose 1 µM) was tested. Which cell count did it give?
**A.** The cell count was 90.4%.
